This note sets out measurements from the RNAGym collection of RNA variant scans (doi:10.1101/gad.245936.114).

Variants at the floor of the assay are shown more often than the library holds them.

The labels stand for the following.
B1: tRNA (parent)
chain: CUCUCGGUAGCCAAGUUGGUUUAAGGCGCAAGACUUUAAUUUAUCACUACGAAAUCUUGAGAUCGGGCGUUCGACUCGCCCCCGGGAGAUUUUUUCCUCGAGCAA

The variants in the series derive from B1. Description: nonsense suppression (GFP-seq) (ratio to wild type); higher = more function; SUP4oc tRNA, yeast GFP reporter sort-seq. In short, it runs like this:
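Each variant's nonsense suppression (GFPSEQ) is a cell-share-weighted bin median GFP/RFP relative to the unmutated parent tRNA. Yeast with genome-integrated tRNA variants from a ~3% random-mutation library, a galactose-driven GFP ochre reporter and RFP were grown in raffinose/galactose medium with 80 mg/L adenine, then sorted into GFP/RFP bins for Illumina sequencing. Variants needed ≥100 reads and ≥30 cells.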
For G66U G88U, the nonsense suppression is not above 0.026.

Take C11U C72G: the nonsense suppression was not above 0.026.

G19C G32U A54U U76C C82U A89G: the nonsense suppression is not above 0.026.

U17C C29U A33U C79G: the nonsense suppression was not above 0.026.

As to U2A C3U, the nonsense suppression was not above 0.026.

Turning to U8A U16G, the nonsense suppression stood at 0.0647.

As for A14U G18A G19A, the nonsense suppression is not above 0.026.

Regarding C1A C34U, the nonsense suppression was not above 0.026.

In the case of C56G A62U G84C, the nonsense suppression was not above 0.026.

For U76G G85U, the nonsense suppression was not above 0.026.

With A24C C56A U63C G88C, the nonsense suppression was not above 0.026.

Turning to C27A C56G U57G U63A, the nonsense suppression was not above 0.026.

In the case of U4A C5A U17C G28C U35A C79A, the nonsense suppression is not above 0.026.

Take C29A G73C C75U: the nonsense suppression was not above 0.026.

As to G19U G26C U57C, the nonsense suppression was not above 0.026.

As for A14U G25A A54G G65C G69C, the nonsense suppression was not above 0.026.

For G66C U76C, the nonsense suppression was not above 0.026.

In the case of G67U C72G, the nonsense suppression is not above 0.026.

For the variant U2A U63A, the nonsense suppression is not above 0.026.

As for C1U G18C G32U C77U, the nonsense suppression was not above 0.026.

As for G18C A24G G73U, the nonsense suppression was not above 0.026.

For U2A U16G G32A C34G U55A, the nonsense suppression was not above 0.026.

Regarding A14G A62G, the nonsense suppression is not above 0.026.

In the case of C1U G85A G88U, the nonsense suppression is not above 0.026.

On to C12A G59U, for which the nonsense suppression was not above 0.026.

Consider A33U G73C, for which the nonsense suppression is not above 0.026.

For U4A A74U G88A, the nonsense suppression was not above 0.026.

Turning to G65A C72A, the nonsense suppression is not above 0.026.

Take G7U G59A C79U: the nonsense suppression is not above 0.026.

With C1U A14U, the nonsense suppression is not above 0.026.

Regarding C3A A14G, the nonsense suppression was not above 0.026.

As for A9G G61U C75G, the nonsense suppression stood at 1.12.

Consider A9C U57C C82U, for which the nonsense suppression is not above 0.026.

For U2A U71C G88A, the nonsense suppression was not above 0.026.

For A31C C34U G61C, the nonsense suppression was not above 0.026.

Regarding A14G G73A, the nonsense suppression is not above 0.026.

In the case of G26U C82A, the nonsense suppression is not above 0.026.

Turning to C1G C11G U57G G67A G88A, the nonsense suppression is not above 0.026.

Turning to U22G C82G, the nonsense suppression was not above 0.026.

As to G7A A74G A87G, the nonsense suppression was not above 0.026.

In the case of U70A C79G, the nonsense suppression was not above 0.026.

Regarding A62C C64G, the nonsense suppression was not above 0.026.

Take A9U U70A A89C: the nonsense suppression is not above 0.026.

Regarding C1A C56U U71G, the nonsense suppression was not above 0.026.

Consider U16A U57C U76G G86A, for which the nonsense suppression is not above 0.026.

A23G C72A A87U: the nonsense suppression was not above 0.026.

In the case of C5A U21C C34U G59U C80G, the nonsense suppression is not above 0.026.

For U8A G25C G84A G88A, the nonsense suppression was not above 0.026.

Consider G32U G65A, for which the nonsense suppression was not above 0.026.

Regarding C3U G25U C80U, the nonsense suppression was not above 0.026.

In the case of A31G C83G, the nonsense suppression is not above 0.026.

Consider G18C C29U, for which the nonsense suppression was not above 0.026.

In the case of U2A A62G G78C, the nonsense suppression was not above 0.026.

With C12U C34A A62G G69U, the nonsense suppression is not above 0.026.

Regarding U21A A23C U55A G61A, the nonsense suppression is not above 0.026.

Consider C11A A23G C79G, for which the nonsense suppression was not above 0.026.

In the case of U2A G15U, the nonsense suppression was not above 0.026.

For the variant C12A A33U, the nonsense suppression is not above 0.026.

Regarding A24C U58C, the nonsense suppression was 0.034.

For the variant C1G A74C, the nonsense suppression is not above 0.026.

As to A14G U55G, the nonsense suppression is not above 0.026.

Take A60U U70C U76C: the nonsense suppression was not above 0.026.

As to C1U C34G A60C, the nonsense suppression was not above 0.026.

With C5A G61C, the nonsense suppression was found to be 0.0329.

Consider G32U U55G, for which the nonsense suppression was not above 0.026.

Consider G59U G61C C64A, for which the nonsense suppression was not above 0.026.

In the case of U35G G67U U71G, the nonsense suppression is not above 0.026.

As to U20A A89U, the nonsense suppression was not above 0.026.

C11A G15A A31C C79G: the nonsense suppression was not above 0.026.

As to U4C A31U, the nonsense suppression is 1.04.

As for G18A G66U, the nonsense suppression is not above 0.026.

For the variant C3U U8G A54U U58G C83U, the nonsense suppression is not above 0.026.

Take A62G A74U C77G: the nonsense suppression is not above 0.026.

For the variant G10U U16A, the nonsense suppression is not above 0.026.

For the variant C5U G15C, the nonsense suppression is not above 0.026.

For the variant A60G G78U, the nonsense suppression is 0.0498.

Consider C12G A24G U35G G61A U71A G86A, for which the nonsense suppression is not above 0.026.

Regarding A62G G67C G73A, the nonsense suppression is not above 0.026.

Regarding A9C C68G U71G, the nonsense suppression was not above 0.026.

C5A G69C G84U: the nonsense suppression is not above 0.026.

For the variant G26C A31U G88U, the nonsense suppression is not above 0.026.

As for C5A A9U G66C, the nonsense suppression was not above 0.026.

With G25C G65A C80G, the nonsense suppression was not above 0.026.

On to C12A G19U A24G G28U A62U, for which the nonsense suppression is not above 0.026.

Consider A14G G19C C56A, for which the nonsense suppression is not above 0.026.

In the case of G10U G26U G73C, the nonsense suppression was not above 0.026.

As for C72U U76C, the nonsense suppression was not above 0.026.

On to G66A U76A C77A, for which the nonsense suppression is not above 0.026.

Turning to U2A U16G G25C U55A, the nonsense suppression is not above 0.026.

On to A9G U35G G86C, for which the nonsense suppression was not above 0.026.

In the case of G26A C68G, the nonsense suppression was not above 0.026.

As to C3A C11G G66C C77G C79G G86U, the nonsense suppression is not above 0.026.

Regarding U21G G28U A87C, the nonsense suppression was not above 0.026.

Regarding C11A U71C A89G, the nonsense suppression was not above 0.026.

Take G61U C82A: the nonsense suppression was not above 0.026.

U20A G32U G84C: the nonsense suppression is not above 0.026.

U35G G85U: the nonsense suppression is not above 0.026.

As for G15A U16G U55A, the nonsense suppression is not above 0.026.

Turning to C11U C56A G67A A74G, the nonsense suppression is not above 0.026.

In the case of U57C G66A, the nonsense suppression is not above 0.026.

For the variant U17G A60G U63G G69A, the nonsense suppression is not above 0.026.

As to A23U G86U, the nonsense suppression is not above 0.026.

For U20C A23U A54G, the nonsense suppression is not above 0.026.

Consider G26U A31C G84A, for which the nonsense suppression is not above 0.026.

Take C29G U58A: the nonsense suppression was not above 0.026.

As for G7U G19C G32U, the nonsense suppression is not above 0.026.

On to G6A U17A G84U A89C, for which the nonsense suppression was not above 0.026.

Regarding A13C C27U A87C, the nonsense suppression was not above 0.026.

Turning to G7U A31G A60C, the nonsense suppression was not above 0.026.

As to U4G A33U U57A G69A U76A, the nonsense suppression was not above 0.026.

Consider U4G U20G U22A, for which the nonsense suppression was 0.21.

Regarding G66U C77G C79A, the nonsense suppression is not above 0.026.

Regarding C27U U57A G85A, the nonsense suppression is not above 0.026.

Turning to G10A A14C G18U U21A G84A, the nonsense suppression was not above 0.026.

U4G G86C: the nonsense suppression was not above 0.026.

As to G7C A23G G67U, the nonsense suppression is not above 0.026.

In the case of C11A G26U U70G, the nonsense suppression is not above 0.026.

As for U2G U57C, the nonsense suppression is not above 0.026.

With U2A U63G G88A, the nonsense suppression is not above 0.026.

With U16C G32U, the nonsense suppression was not above 0.026.

For A30G C34G A89C, the nonsense suppression is not above 0.026.

Consider U4A A14G G69C U70C C83A, for which the nonsense suppression is not above 0.026.

With C11U G69A, the nonsense suppression is not above 0.026.

Take G67A U76G G78A: the nonsense suppression was not above 0.026.

As to A9G C34G U71G C75G, the nonsense suppression was not above 0.026.

Turning to G28U A33U C75A, the nonsense suppression was not above 0.026.

On to G59C A60G A62C U70G C79A, for which the nonsense suppression is not above 0.026.

Regarding G7U G25A C27U A60G, the nonsense suppression is not above 0.026.

In the case of A9U G66U, the nonsense suppression is not above 0.026.

Consider G10C C75A A87C, for which the nonsense suppression is not above 0.026.

Regarding C1G G26C U70A, the nonsense suppression is not above 0.026.

U57A C68G: the nonsense suppression was not above 0.026.

Regarding A14C U16C U17G C34U U70A, the nonsense suppression is not above 0.026.

As for U4C G15U, the nonsense suppression was not above 0.026.

As for G18U U57C, the nonsense suppression is not above 0.026.

With C11G G18A, the nonsense suppression is not above 0.026.

For the variant C34U G67U, the nonsense suppression is not above 0.026.

C5A G7C G85U: the nonsense suppression is not above 0.026.

Consider A60G A87U, for which the nonsense suppression was not above 0.026.

For the variant C56G A62U G78C G84A, the nonsense suppression is not above 0.026.

For the variant A13G A24U G59C, the nonsense suppression is not above 0.026.

With U58G G66U C75A, the nonsense suppression is not above 0.026.

A24G G59A C79G: the nonsense suppression is not above 0.026.

As to C12A A60G G61A G86C, the nonsense suppression was not above 0.026.

Take C27G A89U: the nonsense suppression was not above 0.026.

For the variant U55A U63C, the nonsense suppression was not above 0.026.

For the variant C29G C75G G88U, the nonsense suppression was not above 0.026.

G6A U55A G85A: the nonsense suppression is not above 0.026.

As for A13U A23G G61A, the nonsense suppression was not above 0.026.

With A13C G28U G32U, the nonsense suppression was not above 0.026.

For the variant C1G C5U G10U, the nonsense suppression was not above 0.026.

Consider C5G A23U G78U, for which the nonsense suppression was not above 0.026.

For C5U C27A A30C U57G A87U, the nonsense suppression is not above 0.026.

Regarding A9U U35A A60C G61U G73A, the nonsense suppression was not above 0.026.

As for A9U U70C, the nonsense suppression is not above 0.026.

In the case of A13U A54C G66A A74C G86A, the nonsense suppression was not above 0.026.

In the case of C1U U17C C64A, the nonsense suppression was not above 0.026.

Consider G15U G86U, for which the nonsense suppression is not above 0.026.

For the variant C27U U76A, the nonsense suppression is not above 0.026.

As for G28C U35C U70C, the nonsense suppression is not above 0.026.

Regarding U35C G84C, the nonsense suppression is not above 0.026.

For the variant C27U G67U, the nonsense suppression is not above 0.026.

A9G U22G A31C C68A: the nonsense suppression is not above 0.026.

Take G84A G86U: the nonsense suppression is not above 0.026.

For C3U U20C G88C, the nonsense suppression was not above 0.026.

Consider G28C A30U G85U, for which the nonsense suppression was not above 0.026.

For C68A G69C A89C, the nonsense suppression is not above 0.026.
